# In patent US20230127258:
# B1: human neutrophil elastase (protein)
# chain: IVGGRRARPHAWPFMVSLQLRGGHFCGATLIAPNFVMSAAHCVANVNVRAVRVVLGAHNLSRREPTRQVFAVQRIFENGYDPVNLLNDIVILQLNGSATINANVQVAQLPAQGRRLGNGVQCLAMGWGLLGRNRGIASVLQELNVTVVTSLCRRSNVCTLVRGRQAGVCFGDSGSPLVCNGLIHGIASFVRGGCASGLYPDAFAPVAQFVNWIDSIIQ
# Target: TCP-25 (thrombin-derived C-terminal peptide, …)
protein,measurement,value
B1,"digestion of TCP-25 with HNE, MALDI mass spectra","After 180 min, no intact TCP-25 could be detected from the solution or gel sample"
